# Reference: PMC4336329 (PLoS ONE, 2015)
# The whole screen tested about 310,000 compounds, of which about 14,000 (4.5%) showed an effect of 50% or more. The effect is printed as a negative number. This is one part of the list.
# Target: human ether-à-go-go-related gene (hERG) potassium channel (human, UniProt Q12809)
# Assay: primary screen, population patch clamp on CHO cells stably expressing hERG
# 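Note: peak tail current of the secondary pulse compared with the same well before compound.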
# human ether-à-go-go-related gene (hERG) potassium channel, sequence (Q12809 whole entry, looked up): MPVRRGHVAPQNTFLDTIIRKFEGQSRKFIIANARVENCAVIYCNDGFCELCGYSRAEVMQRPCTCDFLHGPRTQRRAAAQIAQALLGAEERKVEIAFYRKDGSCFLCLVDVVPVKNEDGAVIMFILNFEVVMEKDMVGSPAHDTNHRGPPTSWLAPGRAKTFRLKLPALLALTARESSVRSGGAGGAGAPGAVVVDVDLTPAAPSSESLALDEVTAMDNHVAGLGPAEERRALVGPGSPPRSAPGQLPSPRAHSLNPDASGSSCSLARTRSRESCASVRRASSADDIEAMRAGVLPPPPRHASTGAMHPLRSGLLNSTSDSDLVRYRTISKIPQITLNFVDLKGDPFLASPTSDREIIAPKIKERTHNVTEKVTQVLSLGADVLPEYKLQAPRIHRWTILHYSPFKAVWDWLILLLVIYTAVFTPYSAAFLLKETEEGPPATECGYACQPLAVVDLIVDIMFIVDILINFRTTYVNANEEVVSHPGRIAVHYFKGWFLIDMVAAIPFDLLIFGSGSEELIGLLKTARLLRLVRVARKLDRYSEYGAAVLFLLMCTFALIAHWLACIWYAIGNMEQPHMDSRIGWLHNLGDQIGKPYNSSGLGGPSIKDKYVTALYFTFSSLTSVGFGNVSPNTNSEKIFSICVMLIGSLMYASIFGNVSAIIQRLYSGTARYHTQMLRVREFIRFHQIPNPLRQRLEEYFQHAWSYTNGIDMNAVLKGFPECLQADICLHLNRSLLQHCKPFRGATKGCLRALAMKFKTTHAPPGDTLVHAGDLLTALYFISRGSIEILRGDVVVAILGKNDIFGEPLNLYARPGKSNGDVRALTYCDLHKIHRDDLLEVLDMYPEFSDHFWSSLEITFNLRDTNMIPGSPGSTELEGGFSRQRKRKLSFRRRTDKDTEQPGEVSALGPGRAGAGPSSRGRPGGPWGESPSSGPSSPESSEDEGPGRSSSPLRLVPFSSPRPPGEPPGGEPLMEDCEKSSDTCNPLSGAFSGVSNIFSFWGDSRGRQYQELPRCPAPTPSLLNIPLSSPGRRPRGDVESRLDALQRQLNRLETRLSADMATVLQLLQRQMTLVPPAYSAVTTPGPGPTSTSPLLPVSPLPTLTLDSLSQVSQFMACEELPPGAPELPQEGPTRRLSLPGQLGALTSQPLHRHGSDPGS
row,SMILES,"hERG current change (%, negative = inhibition) at 10uM"
1,Cc1ccc(NC(=O)Cc2nnc(SCC(=O)Nc3nncs3)n2C)c(C)c1,20.9%
2,Cc1c(/C(O)=C2/C(=O)C(=O)N(CCN3CCOCC3)C2c2cccnc2)cnn1-c1ccccc1 (stereo not shown),20.9%
3,Cc1ccnc(Nc2nc(-c3ccc(O)cc3)cs2)c1,20.6%
4,O=C(Nc1ccccc1-c1ccccc1)C1CCCN(c2ncccn2)C1 (stereo not shown),16.9%
5,O=c1[nH]c(CSc2nnc(Cc3ccccc3)o2)nc2ccccc12,-6.55%
6,CC12CN(C(=S)Nc3ccccc3)CC(C)(CN(C(=S)Nc3ccccc3)C1)C2=O,10.3%
7,CCC(Oc1ccccc1)C(=O)NCCOC (stereo not shown),-8.48%
8,CC1CCN(C(=O)CN2C(=O)c3cccc4cccc(c34)C2=O)CC1,2.37%
9,Cc1ccc(C(=O)O/N=C\c2ccc(N3CCOCC3)c([N+](=O)[O-])c2)cc1,14.2%
10,CCOP(=O)(OCC)C(NC(=O)Nc1cccc(Cl)c1)C(N)=O (stereo not shown),8.47%
11,COc1cc(C(c2c(C)[nH][nH]c2=O)c2c(C)[nH][nH]c2=O)ccc1OCc1ccc([N+](=O)[O-])cc1,8.76%
12,CCCn1ncc2c(Nc3ccc(C)c(C)c3)ncnc21,-25.2%
13,Cc1nn(C)c(C)c1S(=O)(=O)N1CCC(CO)(Cc2ccc(Cl)cc2)CC1,-3.56%
14,Cc1oc(=O)c(NC(=O)c2ccccc2)cc1C(N)=O,23.3%
15,COC(=O)c1cc(Br)c(=O)n(CCN(C(C)C)C(C)C)c1,-21.1%
16,Cc1ccc(C(=O)COC(=O)C2C3C=CC(C3)C2C(=O)OCC(=O)c2ccc(C)c(C)c2)cc1C (stereo not shown),11.4%
17,O=S(=O)(Nc1cccc2c1CCCC2)c1ccc(Cl)cc1,-9.87%
18,CCOC(=O)COc1c(Cl)cc(C2NC(=S)NC(c3ccccc3)=C2C(C)=O)cc1OCC (stereo not shown),7.96%
19,CN(Cc1cccs1)C(=O)Cn1cnc2ccccc2c1=O,11.8%
20,Nc1nonc1-c1noc(CCCN2C(=O)c3ccccc3C2=O)n1,-11%
21,N#C/C(C(=O)N1CCOCC1)=C1\Nc2ccccc2S1,2.1%
22,CSc1nsc(SCc2ccc(Cl)cc2)n1,12.9%

row,SMILES,"hERG current change (%, negative = inhibition) at 10uM"
1,N#Cc1ncc(C(F)(F)F)cc1Sc1ccc(N)cc1,-5.49%
2,CC1CN(c2nc(Nc3ccccc3)nc(N)c2[N+](=O)[O-])CC(C)O1 (stereo not shown),-22.2%
3,CSc1nnc(NC(=O)CCc2ccccc2)s1,-6.33%
4,CCOc1ccccc1/C=N/Nc1nc2ccccc2o1,15.1%
5,CCn1c(CNC(=O)c2ccc(Cl)cc2)nnc1SCC(=O)NC1=NCCS1,18%
6,CCOC(=O)C1=NNC2(CC(=O)N(c3cccc(C)c3)C2=O)C1 (stereo not shown),7.7%
7,O=C(NN1C(=O)/C(=C/c2cccc(O)c2)SC1=S)c1ccccc1O,2.92%
8,N#CC1=C2SCN(Cc3ccco3)CN2C(=O)CC1c1cccc2ccccc12 (stereo not shown),-11.1%
9,CS(=O)(=O)c1ccccc1C(=O)Nc1cc(Cl)ccc1-n1cncn1,13.4%
10,NC(=O)C1CCCN(Cc2c(C(=O)N3CCc4ccccc4C3)nc3ccc(Cl)cn23)C1 (stereo not shown),-9.28%
11,CCN(CC(=O)Nc1ccc(NC(C)=O)cc1)C(=O)c1cc(-c2ccccc2)nn1-c1ccccc1,8.43%
12,CCc1c(C)nc(SCC(=O)NNC(=O)Cc2ccc(OC)cc2)[nH]c1=O,-13.6%
13,O=C(CN1CCCC1=O)N1CCOCC1,-3.79%
14,COc1ccccc1-c1cc(C(=O)NCc2ccco2)no1,4.12%
15,O=C/C(=C\Nc1ccc(Cl)cn1)c1nc2ccccc2o1,9.15%
16,O=C1CC(c2ccc(F)cc2)Cc2nc(N3CCN(c4ccccc4)CC3)ncc21 (stereo not shown),1.48%
17,O=C(O)C1CCCN(S(=O)(=O)c2ccc(Cl)s2)C1 (stereo not shown),4.58%
18,COc1ccc(NC(=O)N2CCCC(C(=O)Nc3ccccc3OC)C2)cc1 (stereo not shown),-5.26%
19,O=C(O)CSCc1nc2cccnc2n1C1CCCCC1,18.6%
20,Cc1[nH]c2ccc(-c3nnc(SCC(=O)NCc4ccco4)n3Cc3ccccc3)cc2c1C,22.5%
21,O=C(Cc1ccccc1F)Nc1ccc(S(=O)(=O)N2CCCCC2)cc1,-3.64%
22,CN(CC(=O)Nc1ccc(F)c(F)c1F)C(=O)Cc1ccc2c(c1)OCCO2,13.1%

row,SMILES,"hERG current change (%, negative = inhibition) at 10uM"
1,O=C1OCC(c2ccccc2)=C1c1ccccc1[N+](=O)[O-],15.7%
2,Cc1nnc(SCC(=O)NC(=O)Nc2ccc3c(c2)OCCO3)s1,9.61%
3,O=C(Nc1cccc2ccccc12)c1ccc(Cn2cc(Cl)cn2)cc1,-7.34%
4,Cc1ccc(S(=O)(=O)N2CCOCC2)cc1NC(=O)CN1CCN(C)CC1,-9.15%
5,CC(C)c1ccc(NC(=O)Cc2cn(C)c3ccccc23)cc1,13.3%
6,Cc1ccc(-c2nc(CS(=O)(=O)CC(=O)NCCCN3CCN(C)CC3)c(C)o2)cc1,14.7%
7,O=c1[nH]cnc2c1sc1nc(-c3ccccc3)c3c(c12)CCCC3,11.4%
8,Nc1nc(SCC(=O)NNc2c(Cl)cc(Cl)cc2Cl)n[nH]1,6.76%
9,O=C(O)CCCN1C(=O)c2ccc(C(=O)c3cccc([N+](=O)[O-])c3)cc2C1=O,12.7%
10,COc1ccc2[nH]c(=O)c(CN(C)C(=O)C3CCCCC3)cc2c1,2.21%
11,O=C(COc1ccc(Cl)cc1Br)NNC(=O)C(=O)N1CCCCC1,13%
12,Cc1c(Cl)cccc1NC(=S)NCc1ccc(Cl)cc1,-0.964%
13,COc1ccc(C(C(=O)NC(C)(C)C)N(Cc2ccc(F)cc2)C(=O)CCC(=O)Nc2cc(C)on2)cc1 (stereo not shown),-3.04%
14,Cc1cccc(OCCCC(=O)NNC(=O)c2ccc(F)cc2)c1,-7.21%
15,COc1ccc2c(c1)c(C(=O)O)c(C)n2CC(C)C,-13.8%
16,Nc1cc(-c2cccc(F)c2)nn1S(=O)(=O)c1cccc2nsnc12,-6.09%
17,CC(C)(C)n1nnnc1C(c1ccccc1F)N(Cc1ccco1)CC1CCCO1 (stereo not shown),-28.6%
18,Cc1ccc(S(=O)(=O)/N=C(/c2ccc(F)cc2)N2CCCC2)cc1,-0.35%
19,COC(=O)c1[nH]c2ccc(C)cc2c1NS(=O)(=O)c1ccc(F)c(C)c1,0.0651%
20,CCOc1ccccc1-n1c(SCC(=O)NC(C)CC)nnc1-c1ccoc1C (stereo not shown),-12.7%
21,N#CC1=C(N)Oc2cc(N)ccc2C1c1ccc(F)cc1 (stereo not shown),-14.9%
22,c1cncc(-c2nc3ccccc3o2)c1,-6.13%

row,SMILES,"hERG current change (%, negative = inhibition) at 10uM"
1,COC(=O)[C@@H]1C[C@]2(OC(=O)c3ccccc3)C=CC(=O)C[C@@H]2N1C(=O)OCc1ccccc1,-14.3%
2,CCn1ccnc1CNC(=O)C1CCC(=O)N(Cc2ccccc2F)C1 (stereo not shown),16.3%
3,O=C(Nc1nc(-c2ccc([N+](=O)[O-])cc2)cs1)c1c(F)cccc1F,5.73%
4,O=C(NCC(=O)N1CCN(C(=O)c2ccco2)CC1)c1cccc(Cl)c1,-48.6%
5,C/C(=N\NC(=O)c1ccc(O)cc1)c1cccc(NC(=O)c2ccccc2C)c1,15.7%
6,Cc1cc(C)cc(NC(=S)NCc2cccn2C)c1,12.5%
7,Fc1ccc(N/N=C/c2ccc(N3CCOCC3)cc2)c(F)c1,11.4%
8,Cc1ccccc1S(=O)(=O)Cc1ccc(C(=O)NC2CCCCC2)o1,-1.84%
9,COCCNC(=O)c1ccc(C(=O)C(=O)c2ccccc2)cc1,6.38%
10,CC(C)CC(=O)Nc1cccc(-c2nc3ccccc3o2)c1,-6.95%
11,O=C(c1ccc(NC2=NC3CS(=O)(=O)CC3S2)cc1)N1CCN(c2ccccc2F)CC1 (stereo not shown),7.83%
12,CCC1CN(C)C2Cc3c([nH]c4ccccc34)C(=O)CC1C2C(=O)OC (stereo not shown),5.37%
13,CCOC(=O)N1CCN(CC(=O)Nc2ccccc2C(=O)Nc2ccccc2)CC1,-21.3%
14,CCOCCn1ccc2c(OCC(=O)NCc3ccccc3)cccc2c1=O,-21.4%
15,COc1ccc(CCNC(=O)c2ccc3ccccc3n2)cc1OC,14.1%
16,CCC(=O)c1cn(CC(=O)Nc2ccccc2F)c2ccccc12,20.3%
17,CCCCn1c(SCC(=O)Nc2cccc(OC)c2)nc2ccc(N3CCOCC3)cc2c1=O,-9.77%
18,CCOC(=O)COc1cnc2ccccc2n1,12.7%
19,Fc1ccccc1-c1nc(-c2ccccc2)no1,4.72%
20,Cc1cc(NC(=O)CSc2nc(-c3cccs3)nc3ccccc23)no1,14.7%
21,Clc1ccc(CSc2cc3c(nn2)-c2ccccc2CC3)cc1,23%
22,NC(=O)CCN1CCN(Cc2cn[nH]c2-c2cccc3ccccc23)CC1,-24.9%
